{"source": "the supplement of paper PMC4604168 (melanoma cell lines)", "note": "The list shows a part of the results. Repeats are few or missing, and single values can be far off.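 Further: cell number obtained by counting DAPI-stained nuclei in high-throughput microscope images with image analysis software, screen run in 1,536-well plates.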", "data": [{"test_system": "WM3526", "assay": "cell count relative to DMSO control; melanoma cells; higher = more viable cells", "conditions": "library dose: low library concentration; 72 h; first compound 0.4 µM", "units": {"cell count": "%"}, "values": [{"smiles": "Cn1sc(=O)n(Cc2ccccc2)c1=O", "note": "+ Cc1cc(N2CCOCC2)cc2[nH]c(-c3c(NC[C@@H](O)c4cccc(Cl)c4)cc[nH]c3=O)nc12 [BMS536924] (partner dose 0.2 µM)", "cell count": 93.2}, {"smiles": "CCCCCCCCCCCCCCCCCCOP(=O)([O-])OC1CC[N+](C)(C)CC1", "note": "[Perifosine] + C[C@@H]1CCN(C(=O)CC#N)C[C@@H]1N(C)c1ncnc2[nH]ccc12 [CP690550] (partner dose 1 µM)", "cell count": 153}, {"smiles": "CCCCCCCCCCCCCCCCCCOP(=O)([O-])OC1CC[N+](C)(C)CC1", "note": "[Perifosine] + OCCn1cc(-c2cnc3nnn(Cc4ccc5ncccc5c4)c3n2)cn1 [PF04217903] (partner dose 1 µM)", "cell count": 70.3}, {"smiles": "CCCCCCCCCCCCCCCCCCOP(=O)([O-])OC1CC[N+](C)(C)CC1", "note": "[Perifosine] + O=C(O)c1ccc2c(c1)nc(Nc1cccc(Cl)c1)c1ccncc12 [CX4945] (partner dose 0.4 µM)", "cell count": 90.5}, {"smiles": "Cn1sc(=O)n(Cc2ccccc2)c1=O", "note": "+ O=C(CCCCCCC(=O)Nc1ccccc1)NO [vorinostat] (partner dose 0.08 µM)", "cell count": 83}, {"smiles": "C[C@@H](N)c1ccc(C(=O)Nc2ccnc3[nH]ccc23)cc1", "note": "+ CC(C)C[C@H](NC(=O)[C@H](Cc1ccccc1)NC(=O)c1cnccn1)B(O)O [Bortezomib] (partner dose 0.001 µM)", "cell count": 111}, {"smiles": "CCCCCCCCCCCCCCCCCCOP(=O)([O-])OC1CC[N+](C)(C)CC1", "note": "[Perifosine] + O=c1[nH]nc(Sc2ncc([N+](=O)[O-])s2)n1-c1ccc2c(c1)OCCO2 [BI78D3] (partner dose 0.2 µM)", "cell count": 109}]}]}
